# According to paper PMC4336329 (PLoS ONE, 2015):
# The campaign covered roughly 310,000 compounds. About 14,000 (4.5%) showed an effect of 50% or more. Effects have a minus sign here. The list shows a part of the results.
# Target: human ether-à-go-go-related gene (hERG) potassium channel (human, UniProt Q12809)
# Assay: primary screen, population patch clamp on CHO cells stably expressing hERG
# 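Also: peak tail current of the secondary pulse compared with the same well before compound.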
# Sequence of human ether-à-go-go-related gene (hERG) potassium channel (Q12809 whole entry, looked up): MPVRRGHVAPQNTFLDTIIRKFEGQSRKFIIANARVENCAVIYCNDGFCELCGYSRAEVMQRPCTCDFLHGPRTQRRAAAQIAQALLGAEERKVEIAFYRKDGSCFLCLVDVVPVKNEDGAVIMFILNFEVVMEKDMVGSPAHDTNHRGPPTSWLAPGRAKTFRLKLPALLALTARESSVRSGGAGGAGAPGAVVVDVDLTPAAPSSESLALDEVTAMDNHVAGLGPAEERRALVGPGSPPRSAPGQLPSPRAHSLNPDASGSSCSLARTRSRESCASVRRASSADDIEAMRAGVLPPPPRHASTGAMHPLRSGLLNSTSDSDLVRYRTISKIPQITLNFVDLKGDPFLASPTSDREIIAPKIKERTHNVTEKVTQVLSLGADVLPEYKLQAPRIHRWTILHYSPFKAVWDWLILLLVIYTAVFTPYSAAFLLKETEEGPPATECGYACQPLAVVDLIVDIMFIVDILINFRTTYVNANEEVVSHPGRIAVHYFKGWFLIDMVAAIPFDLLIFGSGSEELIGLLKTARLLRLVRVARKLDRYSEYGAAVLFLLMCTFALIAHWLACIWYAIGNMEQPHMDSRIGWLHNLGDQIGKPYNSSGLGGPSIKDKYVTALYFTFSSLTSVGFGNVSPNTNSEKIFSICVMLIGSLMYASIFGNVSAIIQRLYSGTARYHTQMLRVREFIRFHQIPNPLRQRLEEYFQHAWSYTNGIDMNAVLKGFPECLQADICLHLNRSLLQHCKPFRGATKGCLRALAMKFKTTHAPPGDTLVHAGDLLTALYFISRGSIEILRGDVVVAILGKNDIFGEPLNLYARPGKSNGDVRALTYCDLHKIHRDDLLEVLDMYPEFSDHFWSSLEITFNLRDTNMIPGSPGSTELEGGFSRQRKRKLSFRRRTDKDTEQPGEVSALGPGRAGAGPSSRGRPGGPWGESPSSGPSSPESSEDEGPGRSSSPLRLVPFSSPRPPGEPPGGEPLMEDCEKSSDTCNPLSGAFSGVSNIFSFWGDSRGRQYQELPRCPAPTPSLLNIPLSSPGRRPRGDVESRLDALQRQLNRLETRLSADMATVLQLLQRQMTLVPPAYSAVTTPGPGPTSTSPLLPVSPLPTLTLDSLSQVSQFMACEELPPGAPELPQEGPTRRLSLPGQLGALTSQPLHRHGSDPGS
row,Compound,"hERG current change (%, negative = inhibition) at 10uM [%]"
1,CCc1ccc(/C=N/NC(=S)NCCc2ccccc2)cc1,-24.1
2,Cc1ccc(C)c(NC(=O)CCN2CCC(C)CC2)c1,-9.25
3,CC1CN=C(NCc2ccccc2)S1 (stereo not shown),11
4,O=C(CN1CCCCC1)NN(Cc1ccccc1)c1ccccc1.O=C(O)C(=O)O,-73.3
5,CC1CCCC(NC(=O)CN(C)CC(=O)Nc2ccc(F)cc2)C1C (stereo not shown),-12.8
6,Cc1nc2nc[nH]n2c(=O)c1NC(=O)CC12CC3CC(CC(C3)C1)C2,7.21
7,Cc1cccn2c(=O)c(C=O)c(NCc3ccccc3)nc12,6.99
8,O=C(NCC(F)(F)F)N1CCOCC1,9.6
9,Cc1nc2sc(C(c3ccco3)N3CCN(c4ccc(F)cc4)CC3)c(O)n2n1 (stereo not shown),-40.8
10,Br.Cc1ccc(C(=O)Cn2c(=N)n(N)c3ccccc32)cc1,-14.7
11,CCCCNc1nc(N(C)c2ccccc2)nc(-n2ccnc2)n1,0.357
12,COc1ccc(C(=O)COC(=O)C(CCSC)NS(=O)(=O)c2ccc(Cl)cc2)cc1 (stereo not shown),-2.17
13,O=C(NCC1COc2ccccc2O1)C1C2C=CC3(CN(Cc4ccccc4Cl)C(=O)C13)O2 (stereo not shown),-20.4
14,COC(=O)C1=C(CS(=O)(=O)c2ccc(Cl)cc2)NC(=O)NC1c1ccc(O)c(OC)c1 (stereo not shown),-4.22
15,Cc1ccc(O/C=C2\OC(=O)c3ccccc32)cc1,12.6
16,O=c1c2c(nc3nc(CCc4ccccc4)[nH]n13)CCC2,-15.6
17,CCCN(CCC)CC(=O)Nc1cccc2c1OCO2.Cl,-2.02
18,COc1ccc(OCC(=O)NNC(=O)c2nn(C)c(=O)c3ccccc23)cc1,-21.1
19,Cc1ccc(NC(=O)CCn2cc(C(F)(F)F)ccc2=O)cc1,12.2
20,Cc1ncoc1C(=O)N1CCCC(C(=O)Nc2cccc(-c3ccc(F)cc3)c2)C1 (stereo not shown),-36.4
21,COCCN1CCN(C(=O)c2cc(COc3ccc(F)cc3F)on2)CC1,-0.284
22,CCOc1ccccc1Nc1nc(-c2sc(NC(=O)c3ccccc3)nc2C)cs1,6.04

row,Compound,"hERG current change (%, negative = inhibition) at 10uM [%]"
1,O=C(c1cc([N+](=O)[O-])ccc1Cl)N1CCN(Cc2ccccc2)CC1,4.75
2,CC1CCN(S(=O)(=O)c2ccc(NC(=O)CN3C(=O)NC(C)(c4ccccc4)C3=O)cc2)CC1 (stereo not shown),-28.1
3,CNc1c([N+](=O)[O-])cnn1-c1ccccc1Cl,-12.8
4,CN(CC(=O)Nc1cccc(S(=O)(=O)NC2=NCCCCC2)c1)Cc1ccc(C(C)(C)C)cc1.O=C(O)C(=O)O,6.28
5,COc1ccc(N2C(=O)CN=C2Nc2nc(C)cc(C)n2)cc1,7.03
6,CCn1c2ccccc2c2cc(/C=N/n3c(-c4cc(C)[nH]n4)n[nH]c3=S)ccc21,20.3
7,COCCCn1c(=O)c2sccc2n(Cc2cc(C(=O)OC)ccc2OC)c1=O,-17.2
8,CCCCC(=O)Nc1ccc(NC(=O)CCCC)nc1,-7.7
9,CC1CCCCN1C(=S)NCc1ccco1 (stereo not shown),11.5
10,CCCc1nnc(NC(=O)CCC(=O)NC2CCCCC2)s1,20
11,CN(Cc1cnccn1)Cc1nc(Cc2ccccc2F)no1,-0.154
12,COc1ccc(-n2c(=O)cc(N3CCOCC3)[nH]c2=O)cc1,9.71
13,Cl.Cn1cnc(CCN)c1,-4.93
14,O=C(O)CCCC(=O)NNc1nc(-c2ccccc2)c2cc(Cl)ccc2n1,22.7
15,COC(=O)CCC(=O)c1ccn(S(=O)(=O)c2ccccc2)c1,4.25
16,COc1ccc(S(=O)(=O)N(CC(=O)N2CCN(C)CC2)c2ccccc2)cc1OC,-1.06
17,O=C(NCCCc1ccccc1)c1cncc(Br)c1,-12.6
18,NCCCC[C@@H]1NC(=O)[C@H](CCC(=O)O)NC(=O)c2cc([N+](=O)[O-])cc(I)c2SC[C@@H](C(=O)NCC(N)=O)NC1=O,17.9
19,CCC1CCCCN1CCCNC(=O)CN1C(=O)c2cccnc2Oc2ccc(C)cc21 (stereo not shown),-0.198
20,COc1cc(NS(=O)(=O)c2ccc(NC(=O)CN3C(=O)c4ccccc4C3=O)cc2)ncn1,3.36
21,Cc1ccc(-n2nc(C)c3c(C)c(CCC(=O)O)c(C)nc32)cc1,12.6
22,CCOc1nc(S(=O)(=O)c2ccc(C)cc2)c(Cl)s1,-10.4

row,Compound,"hERG current change (%, negative = inhibition) at 10uM [%]"
1,O=C(CN1C(=O)NC2(CCc3ccccc32)C1=O)Nc1ccccc1C(F)(F)F (stereo not shown),6.12
2,CS(=O)(=O)N1CCN(c2ccccc2NC(=O)c2ccc(-c3ccc(Br)cc3)o2)CC1,-5.6
3,CN(C)S(=O)(=O)c1ccc(C(=O)NCC(=O)N/N=C/c2cccs2)cc1,15.7
4,CCn1c(NC(=O)C2CCCCC2)nc2ccccc21,8.36
5,Br.NC1(N)OC(CN2C(=O)c3ccccc3C2=O)CS1 (stereo not shown),-5.75
6,COc1cccc(C(=O)NCC2(c3ccc(OC)c(OC)c3)CCCC2)c1,-8.6
7,CN(C)c1ccc(CCc2ccc(N)cc2)cc1,19.9
8,Cc1ccc(OCc2nnc(NC(=O)c3cccnc3)s2)cc1,-13.6
9,COc1ccc(S(=O)(=O)NCC(=O)N(CC2CCCO2)C(C(=O)NC2CCCC2)C(C)C)cc1 (stereo not shown),-30.4
10,CCCN(CCC)CCNC(=O)C1(O)c2ccccc2NC(=O)N1c1cccc(OC)c1 (stereo not shown),18.3
11,CCSc1nnc(CCNS(=O)(=O)c2ccc(C(C)=O)cc2)n1C,-1.22
12,CCOC(=O)Cn1cc(C(=O)c2ccco2)c2ccccc21,-4.02
13,CCCCN(C(=O)Cc1cccs1)c1nnc(-c2cccnc2)s1,-6.04
14,CCCCn1c(N)c(N(CC(C)C)C(=O)CN2C(=O)NC3(CC(C)CC(C)(C)C3)C2=O)c(=O)[nH]c1=O (stereo not shown),-5.5
15,CCCN1CCN(S(=O)(=O)c2cc3c(cc2C)NC(=O)CO3)CC1,-21.6
16,CN(C)c1ccc(/C=C/C=C/c2sc3ccccc3[n+]2C)cc1.[O-][Cl+3]([O-])([O-])[O-],-42.6
17,COc1cc(Cl)c(C)cc1NC(=O)[C@@H]1CCCN1C(=O)c1cccs1,4.64
18,O=C(OCC(=O)N1CCc2ccccc2C1)c1ccc(Cl)c([N+](=O)[O-])c1,-20.7
19,Cc1ccccc1Cn1ccc(NC(=O)c2cc3ncc(Br)cn3n2)n1,5.35
20,O=C(Nc1ccccc1F)C(=Cc1sc(N2CCOCC2)nc1-c1ccccc1)C(=O)Nc1ccccc1F,23.1
21,Cc1ccc(-c2cccc(C(=O)NCCc3ccccc3)n2)c2ccccc12,8.21
22,Cn1c(N/N=C/c2cc3ccccc3nc2Cl)nc2ccccc21,11.5

row,Compound,"hERG current change (%, negative = inhibition) at 10uM [%]"
1,CCCCOC(=O)c1ccccc1N1C(=O)C2C3CCC(C3)C2C1=O (stereo not shown),11.2
2,CCC(=O)N(Cc1ccco1)c1nc(-c2ccccc2)cs1,-1.16
3,Cn1c(=O)c2nc3ccccc3nc2n(C)c1=O,-1.75
4,CCN1CCN(C(=O)c2ccc(Cl)c(S(=O)(=O)N3CCCCC3)c2)CC1,-69.8
5,CCN(CC(=O)NCc1cccs1)C(=O)c1ccc(NS(=O)(=O)c2ccc(C(C)=O)cc2)cc1,9.43
6,Cc1ccccc1NC(=O)CSc1nnc(-c2ccco2)n1N,4.14
7,O=c1nc2ccc(Cl)cn2c2ccc(S(=O)(=O)N3CCCCC3)cc12,-0.392
8,c1ccc2c(c1)nnn2CNc1nccs1,16.8
9,Cc1ccc2sc(C)[n+](CCCS(=O)(=O)[O-])c2c1,10.9
10,CN(C(=O)CSc1nnc(C2CC2)n1C1CC1)C1(C#N)CCCCC1,-5.85
11,COc1cc(CCCN2CCNC[C@@H]2C(C)O)cc(OC)c1OC (stereo partly shown),11.2
12,COc1ccccc1NC(=O)c1ccc2c(c1)N(CC(=O)NC(C)C)C(=O)C(C)(C)O2,6.66
13,O=C(CC(=O)NC1CCCCC1)N/N=C/c1ccccc1F,12
14,COc1cc(/C=N/NC(=O)c2cccs2)ccc1OCc1ccccc1,9.59
15,Cc1nc2nc(SCC(=O)c3cccc([N+](=O)[O-])c3)[nH]c2cc1Br,0.603
16,Cc1noc(NS(=O)(=O)c2ccc(NC(=O)CC(C)C)cc2)c1C,17.5
17,CCOC(=O)C1(CCCc2ccccc2)CCN(C(=O)c2ccoc2)CC1,-54.3
18,CCOC(=O)c1c(NC(=S)Nc2ccc(OC)cc2)sc2c1CCC2,14
19,O=C(CSc1nc2ccccc2[nH]1)Nc1cc(C(F)(F)F)ccc1N1CCOCC1,-37.7
20,Cc1ccc(NC(=O)COc2ccc(S(=O)(=O)N3CCOCC3)cc2)cc1,7.98
21,O=C(O)CCc1nnc(SCC(=O)Nc2cccc(C(F)(F)F)c2)[nH]c1=O,28.1
22,CCCN1C(=O)CC(Sc2ncccc2C(=O)O)C1=O (stereo not shown),12.9
